Experimental data as given in PubChem BioAssay AID360 (National Center for Advancing Translational Sciences (NCATS), 2006).
Among all 48,000 compounds or so, about 550 (1.1%) were called active. About 4% were inconclusive and are not listed. No stated cut-off is given here; in the data, active means potency below about 15 µM; inconclusive means mostly about 16 µM to 33 µM; inactive means weaker than that. This is one part of the list.

Molecular target: Lysosomal acid glucosylceramidase (Homo sapiens) (UniProt P04062)
UniProt P04062, sequence (P04062 whole entry, looked up): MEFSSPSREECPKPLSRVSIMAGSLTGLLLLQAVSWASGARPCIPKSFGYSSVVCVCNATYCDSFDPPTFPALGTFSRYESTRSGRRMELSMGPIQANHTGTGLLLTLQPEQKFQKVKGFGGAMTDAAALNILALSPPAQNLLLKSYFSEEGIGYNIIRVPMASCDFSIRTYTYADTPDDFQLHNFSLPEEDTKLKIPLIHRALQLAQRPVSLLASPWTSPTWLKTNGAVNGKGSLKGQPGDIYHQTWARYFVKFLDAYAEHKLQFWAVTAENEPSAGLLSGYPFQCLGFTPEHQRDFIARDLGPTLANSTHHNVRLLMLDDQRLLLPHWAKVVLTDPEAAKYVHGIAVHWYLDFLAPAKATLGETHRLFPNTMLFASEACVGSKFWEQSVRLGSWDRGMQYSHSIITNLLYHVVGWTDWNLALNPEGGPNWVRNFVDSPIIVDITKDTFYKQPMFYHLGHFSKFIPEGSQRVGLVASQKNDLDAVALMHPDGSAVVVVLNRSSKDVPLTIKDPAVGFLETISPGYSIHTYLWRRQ
Assay: Glucocerebrosidase;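 further: the screen sought inhibitors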
Settings: purified enzyme, resorufin glucoside fluorescence (screen aimed at inhibitors), 20 min
In short: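 Compounds titrated against 0.2 nM normal enzyme, 30 uM resorufin beta-D-glucopyranoside substrate, citrate/phosphate buffer with taurocholate and tween-20, pH 5.9. Reaction ran 20 min at room temperature; fluorescence (Ex 548/Em 600) gave AC50.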
Potency means the concentration at half of the fitted maximal effect.

Potency, inactive:
CCn1ncc(Br)c1C(=O)N(C)C12CC3CC(CC(C3)C1)C2 > 76.9 µM, COc1ccc(-c2cc(=O)[nH]c(NCc3ccccc3)n2)cc1 > 76.9 µM, O=C(c1ccc(N2CCOCC2)nc1)N1CCCCC1 > 76.9 µM, COc1ccccc1OCCCn1cc(C#N)c2ccccc21 > 76.9 µM, CCN(CCCNC(=O)CCNC(=O)Cn1cnc2ccccc2c1=O)c1ccccc1 > 76.9 µM, CCc1nnc(NC(=O)CSc2nnnn2-c2cccc(C(=O)OC)c2)s1 > 76.9 µM, Cc1ccccc1-n1c(=O)cc(NCc2ccc3c(c2)OCO3)[nH]c1=O > 76.9 µM, COc1ccc(CNC(=O)CN(C(=O)c2cc3sccc3n2C)C2CCCC2)cc1 > 76.9 µM, CCOC(=O)C1CCN(C(c2cc3cc(C)cc(C)c3[nH]c2=O)c2nnnn2C2CCCCC2)CC1 (centres undefined) > 76.9 µM, Cc1cc(NC(=O)CCCN2C(=O)c3cccnc3C2=O)no1 > 76.9 µM, CC1=Nn2c(nnc2-c2ccc(F)cc2)SC1 > 76.9 µM, COCCNS(=O)(=O)c1cc(-c2nn(C)c(=O)c3ccccc23)ccc1C > 76.9 µM, CC(C)(C)c1csc(NC(=O)Cn2cnc3ccccc3c2=O)n1 > 76.9 µM, COc1cc2c(C(=O)NCc3ccc(C)o3)cn(CC(C)C)c(=O)c2cc1OC > 76.9 µM, CCCN1Cc2cccc(C(=O)NCc3cccs3)c2C1=O > 76.9 µM, Clc1cccc(-c2nc(-c3ccccn3)no2)c1 > 76.9 µM, CCn1c(SCC(=O)Nc2nccs2)nnc1-c1ccncc1 > 76.9 µM, O=C(NCC1CCCO1)c1coc2nc3ccccc3nc12 (centres undefined) > 76.9 µM, CCOC(=O)N1CCN(C(=O)Cn2c(=O)sc3ccccc32)CC1 > 76.9 µM, O=C(Nc1ccon1)c1cccc(Cl)c1 > 76.9 µM, COc1ccc2c(c1)CCc1c(C(=O)Nc3c(C)n(C)n(-c4ccccc4)c3=O)noc1-2 > 76.9 µM, Cn1c(=O)n(CC(N)=O)c2ccccc21 > 76.9 µM, CC1(C)CC(=O)C2=C(C1)OC(N)=C(C#N)C21CCN(C(=O)OCc2ccccc2)CC1, CC12CCC(=O)N1C(C(=O)OCC(=O)Nc1sccc1C#N)CS2 (centres undefined) > 76.9 µM, O=C(O)Cn1cc(C(=O)C2CC2)c2ccccc21 > 76.9 µM, CCOC(=O)c1ccccc1NC(=O)Cn1cnc2c(oc3ccccc32)c1=O > 76.9 µM, CCOc1ccc(N(CCC#N)S(=O)(=O)c2ccc(OC)cc2)cc1 > 76.9 µM, CCOC(=O)c1ccc2ncc(C(=O)OCC)c(NCc3ccco3)c2c1 > 76.9 µM, Cc1cc(C(C)(C)C)cc(S(=O)(=O)NCC(=O)O)c1C > 76.9 µM, Cc1nn(Cc2ccccc2)c(C)c1NC(=O)CSc1nc2sc3c(c2c(=O)n1C)CCC3 > 76.9 µM, O=C(NCc1cccnc1)c1ccccn1 > 76.9 µM, COC(=O)Nc1ccc(C)c(NC(=O)OC)c1 > 76.9 µM, CC(C)c1ccc(NC(=O)CCNS(=O)(=O)c2cccc3nonc23)cc1 > 76.9 µM, CCCC(=O)Nc1ccc(N2CCN(C(=O)c3ccccc3C)CC2)cc1 > 76.9 µM, COc1cc(C2c3c(oc4ccc(C)cc4c3=O)C(=O)N2c2cc(C)ccn2)cc(OC)c1OC (centres undefined) > 76.9 µM, O=C(OCC1CCCN2CCCCC12)c1ccc2c(c1)OCO2 (centres undefined) > 76.9 µM, C=CCn1c(SCn2nnc3ccccc3c2=O)nnc1C1CCCCC1 > 76.9 µM, CCN(CC)CCN1C(=O)C(O)=C(C(=O)c2ccc(C)o2)C1c1ccccn1 (centres undefined) > 76.9 µM, CCOC(=O)C1CCN(CC(O)COc2ccc(C(C)(C)C)cc2)CC1 (centres undefined) > 76.9 µM, CCCCN(C(=O)c1c(C)[nH]c(C(=O)OCC)c1C)c1ccccc1 > 76.9 µM, NC(=O)CN(c1ccccc1)C1SC(=O)N(Cc2ccccc2)C1=O (centres undefined) > 76.9 µM, CCSc1ccccc1C(=O)Nc1nncs1, CCn1c(SCC(=O)Nc2cccc(F)c2)nnc1-c1cc2cc(Br)ccc2o1 > 76.9 µM, O=C1CC(c2cc3c(cc2Br)OCO3)C2=C(CCCC2=O)N1 (centres undefined) > 76.9 µM, O=C(CN1C(=O)c2cccc3cccc1c23)N1CCc2ccccc2C1 > 76.9 µM, CCn1c(Cc2ccccc2)nnc1SCC(=O)NC(C)(C)C > 76.9 µM, COc1ccccc1N1CCN(C(=O)c2ccc(C(C)(C)C)cc2)CC1 > 76.9 µM, CCn1c(SC/C=C/c2ccccc2)nnc1-c1cccs1 > 76.9 µM, O=C1CC(c2ccco2)=Nc2ccccc2N1 > 76.9 µM, C=CCn1c(SCC(=O)c2ccc(O)c(O)c2)nnc1-c1ccccc1OC > 76.9 µM, COc1ccc(CCNC(=O)c2ccc3c(=O)n(Cc4ccco4)c(=S)[nH]c3c2)cc1OC, O=C(Nc1ccncc1)Nc1ccccn1 > 76.9 µM, CN(C)c1nc(OCCOC(=O)COc2ccc(Cl)cc2Cl)nc(N(C)C)n1 > 76.9 µM, Cc1cc(=S)[nH]c2ccccc12 > 76.9 µM, CCOC(=O)C1CCCN(C(=O)c2cncc(Br)c2)C1 (centres undefined) > 76.9 µM, CCn1c(SCC(=O)Nc2ccc(N3CCOCC3)c(Cl)c2)nnc1-c1ccc(N)cc1 > 76.9 µM, O=C(Nc1cccnc1)c1c(O)c2cccc3c2n(c1=O)CC3 > 76.9 µM, COC(=O)c1sc(S(=O)(=O)N2CCCCC2)c(C(=O)OC)c1C > 76.9 µM, CC(C)C(=O)c1cn(CC(=O)NCC2CCCO2)c2ccccc12 (centres undefined) > 76.9 µM
